The source gives many values for each of these; only a part stands here. Blank lines part the entries; values can stand above or below the molecule they belong to.
Experiment: Solubility in lipid solvents (Example 1)
Format: physicochemical
Conditions: ambient conditions
Method: Solubility of ABT-263 parent (free base, crystalline Form I) and ABT-263 bis-HCl salt was tested in a variety of lipid solvents and solvent mixtures in ambient conditions. Trademarked solvents in this study, unless identified hereinabove, are as follows (substantially equivalent products from other manufacturers can be substituted if available): • Miglyol 810™ of Sasol: caprylic/capric triglycerides; • Capmul MCM™ of Abitec: glyceryl caprylate/caprate; • Captex 300™ of Abitec: caprylic/capric triglycerides; • Labrafil M 2125 CS™ of Gattefosse: polyoxyethylene glyceryl linoleate; • Tween 20™ of Uniqema: polysorbate 20; • Labrasol™ of Gattefossë: polyoxyethylene glyceryl caprylate/caprate; • Cremophor RH40™: polyoxyethylene (40) hydrogenated castor oil. “PE-91” is Phosal 53 MCT™+ethanol, 9:1 by volume. “LOT-343” is Labrafil M 1944 CS™+oleic acid+Tween 80™, 30:40:30 by weight.
In some cases, indicated in Table 4 by an asterisk (*), solubility was initially high but precipitation occurred upon standing.

[1] = PE-91 (Phosal 53 MCT + ethanol 9:1 by volume)

- Solubility (Labrafil M 2125 CS): >290 mg/g
- Solubility (Miglyol 810): <76 mg/g
- Solubility [1]: >250 mg/g
- Solubility (PEG-400): >200 mg/g
- Solubility (Phosal 53 MCT): >300 mg/g
- Solubility (corn oil): <86 mg/g
- Solubility (sesame oil): <75 mg/g
Compound: CC1(C)CCC(c2ccc(Cl)cc2)=C(CN2CCN(c3ccc(C(=O)NS(=O)(=O)c4ccc(N[C@H](CCN5CCOCC5)CSc5ccccc5)c(S(=O)(=O)C(F)(F)F)c4)cc3)CC2)C1 [ABT-263]

- Solubility (Capmul MCM): >321 mg/g
- Solubility (Capmul PG-8): <43 mg/g
- Solubility (Capmul PG-12): <39 mg/g
- Solubility (Captex 300): <52 mg/g
- Solubility (Imwitor 742): >245 mg/g
- Solubility (Labrafil M 1944 CS): <45 mg/g
- Solubility (Labrafil M 2125 CS): <44 mg/g
- Solubility (Labrasol): >292 mg/g
- Solubility (Lipoid S75 MCT): 48.9 mg/g
- Solubility (Miglyol 810): <84 mg/g
- Solubility [1]: 89 mg/g
- Solubility (PEG-400): >278 mg/g
- Solubility (Tween 20): >176 mg/g
- Solubility (Tween 80): >125 mg/g
- Solubility (castor oil): >78.8 mg/g
- Solubility (corn oil): <104 mg/g
- Solubility (oleic acid): <498 mg/g
- Solubility (poloxamer 124): <41 mg/g
- Solubility (propylene glycol): >337 mg/g
- Solubility (sesame oil): <80 mg/g
Compound: CC1(C)CCC(c2ccc(Cl)cc2)=C(CN2CCN(c3ccc(C(=O)NS(=O)(=O)c4ccc(N[C@H](CCN5CCOCC5)CSc5ccccc5)c(S(=O)(=O)C(F)(F)F)c4)cc3)CC2)C1.Cl.Cl [ABT-263 bis-HCl salt]

From patent US8728516B2, “Stabilized lipid formulation of apoptosis promoter” (AbbVie Inc., priority 2009, dated 2014)
